Measured values from patent US12577303B2.

Assays:
[1] = molecular target: human Sirpα-V1-hFc (human) (UniProt P78324); assay: blocking ELISA: Sirpα (dimer) to CD47
[2] = molecular target: human Sirpα-V1 recombinant protein (human) (UniProt P78324); assay: ELISA
[3] = molecular target: human Sirpα-V1-his (human) (UniProt P78324); assay: blocking ELISA: Sirpα to CD47 (dimer)

Binder	IC50 [1] [nM]	multiple of change of IC50 (bispecific / corresponding monoclonal antibody) [1]	EC50 [2] [nM]	multiple of change of EC50 (bispecific / corresponding monoclonal antibody) [2]	IC50 [3] [nM]	multiple of change of IC50 (bispecific / corresponding monoclonal antibody) [3]
LB501 (bispecific antibody) light: DIQMTQSPSSLSASVGDRVTITCRASQDIRNYLNWYQQKPGKAPKLLIYFTSTLHSGVPSRFSGSGSGTDFTLTISSLQPEDFATYYCQQGNTLPWTFGGGTKVEIKGGGGSGGGGSGGGGSQVQLVQSGAEVKKPGASVKVSCKASGYNFNIYWINWVRQAPGQGLEWIGNIYPSSISTNYNEKFKTRATLTVDKSTSTVYMELSSLRSEDTAVYYCARSEGTYYGGRYEGDWFGYWGQGTLVTVSSGGGGSGGGGSGGGGSEIVLTQSPATLSLSPGERATLSCRASKGVSTSGYSYLHWYQQKPGQAPRLLIYLASYLESGVPARFSGSGSGTDFTLTISSLEPEDFAVYYCQHSRDLPLTFGGGTKVEIKRTVAAPSVFIFPPSDEQLKSGTASVVCLLNNFYPREAKVQWKVDNALQSGNSQESVTEQDSKDSTYSLSSTLTLSKADYEKHKVYACEVTHQGLSSPVTKSFNRGEC heavy: QVQLVQSGVEVKKPGASVKVSCKASGYTFTNYYMYWVRQAPGQGLEWMGGINPSNGGTNFNEKFKNRVTLTTDSSTTTAYMELKSLQFDDTAVYYCARRDYRFDMGFDYWGQGTTVTVSSASTKGPSVFPLAPCSRSTSESTAALGCLVKDYFPEPVTVSWNSGALTSGVHTFPAVLQSSGLYSLSSVVTVPSSSLGTKTYTCNVDHKPSNTKVDKRV[letters of human IgG4 Fc with S228P (EU numbers) omitted]	2.55	0.66	0.059	0.77	5.42	0.88
LB502 (bispecific antibody) light: EIVLTQSPATLSLSPGERATLSCRASKGVSTSGYSYLHWYQQKPGQAPRLLIYLASYLESGVPARFSGSGSGTDFTLTISSLEPEDFAVYYCQHSRDLPLTFGGGTKVEIKRTVAAPSVFIFPPSDEQLKSGTASVVCLLNNFYPREAKVQWKVDNALQSGNSQESVTEQDSKDSTYSLSSTLTLSKADYEKHKVYACEVTHQGLSSPVTKSFNRGEC heavy: DIQMTQSPSSLSASVGDRVTITCRASQDIRNYLNWYQQKPGKAPKLLIYFTSTLHSGVPSRFSGSGSGTDFTLTISSLQPEDFATYYCQQGNTLPWTFGGGTKVEIKGGGGSGGGGSGGGGSQVQLVQSGAEVKKPGASVKVSCKASGYNFNIYWINWVRQAPGQGLEWIGNIYPSSISTNYNEKFKTRATLTVDKSTSTVYMELSSLRSEDTAVYYCARSEGTYYGGRYEGDWFGYWGQGTLVTVSSGGGGSGGGGSGGGGSQVQLVQSGVEVKKPGASVKVSCKASGYTFTNYYMYWVRQAPGQGLEWMGGINPSNGGTNFNEKFKNRVTLTTDSSTTTAYMELKSLQFDDTAVYYCARRDYRFDMGFDYWGQGTTVTVSSASTKGPSVFPLAPCSRSTSESTAALGCLVKDYFPEPVTVSWNSGALTSGVHTFPAVLQSSGLYSLSSVVTVPSSSLGTKTYTCNVDHKPSNTKVDKRV[letters of human IgG4 Fc with S228P (EU numbers) omitted]	3.78	0.97	0.066	0.86	5.37	0.87
LB503 (bispecific antibody) light: EIVLTQSPATLSLSPGERATLSCRASKGVSTSGYSYLHWYQQKPGQAPRLLIYLASYLESGVPARFSGSGSGTDFTLTISSLEPEDFAVYYCQHSRDLPLTFGGGTKVEIKRTVAAPSVFIFPPSDEQLKSGTASVVCLLNNFYPREAKVQWKVDNALQSGNSQESVTEQDSKDSTYSLSSTLTLSKADYEKHKVYACEVTHQGLSSPVTKSFNRGECAGGGGSGGGGSGGGGSQVQLVQSGAEVKKPGASVKVSCKASGYNFNIYWINWVRQAPGQGLEWIGNIYPSSISTNYNEKFKTRATLTVDKSTSTVYMELSSLRSEDTAVYYCARSEGTYYGGRYEGDWFGYWGQGTLVTVSSGGGGSGGGGSGGGGSDIQMTQSPSSLSASVGDRVTITCRASQDIRNYLNWYQQKPGKAPKLLIYFTSTLHSGVPSRFSGSGSGTDFTLTISSLQPEDFATYYCQQGNTLPWTFGGGTKVEIK heavy: QVQLVQSGVEVKKPGASVKVSCKASGYTFTNYYMYWVRQAPGQGLEWMGGINPSNGGTNFNEKFKNRVTLTTDSSTTTAYMELKSLQFDDTAVYYCARRDYRFDMGFDYWGQGTTVTVSSASTKGPSVFPLAPCSRSTSESTAALGCLVKDYFPEPVTVSWNSGALTSGVHTFPAVLQSSGLYSLSSVVTVPSSSLGTKTYTCNVDHKPSNTKVDKRV[letters of human IgG4 Fc with S228P (EU numbers) omitted]	4.8	1.24	0.075	0.97	7.63	1.24
LB504 (bispecific antibody) light: EIVLTQSPATLSLSPGERATLSCRASKGVSTSGYSYLHWYQQKPGQAPRLLIYLASYLESGVPARFSGSGSGTDFTLTISSLEPEDFAVYYCQHSRDLPLTFGGGTKVEIKRTVAAPSVFIFPPSDEQLKSGTASVVCLLNNFYPREAKVQWKVDNALQSGNSQESVTEQDSKDSTYSLSSTLTLSKADYEKHKVYACEVTHQGLSSPVTKSFNRGEC heavy: QVQLVQSGVEVKKPGASVKVSCKASGYTFTNYYMYWVRQAPGQGLEWMGGINPSNGGTNFNEKFKNRVTLTTDSSTTTAYMELKSLQFDDTAVYYCARRDYRFDMGFDYWGQGTTVTVSSASTKGPSVFPLAPCSRSTSESTAALGCLVKDYFPEPVTVSWNSGALTSGVHTFPAVLQSSGLYSLSSVVTVPSSSLGTKTYTCNVDHKPSNTKVDKRV[letters of human IgG4 Fc with S228P (EU numbers) omitted]AGGGGSGGGGSGGGGSQVQLVQSGAEVKKPGASVKVSCKASGYNFNIYWINWVRQAPGQGLEWIGNIYPSSISTNYNEKFKTRATLTVDKSTSTVYMELSSLRSEDTAVYYCARSEGTYYGGRYEGDWFGYWGQGTLVTVSSGGGGSGGGGSGGGGSDIQMTQSPSSLSASVGDRVTITCRASQDIRNYLNWYQQKPGKAPKLLIYFTSTLHSGVPSRFSGSGSGTDFTLTISSLQPEDFATYYCQQGNTLPWTFGGGTKVEIK	4.62	1.19	0.055	0.71	6.63	1.08
